B1: PhoQ; a variant is named by its letters at X, in order, P23837 (parent)
chain: MKKLLRLFFPLSLRVRFLLATAAVVLVLSLAYGMVALIGYSVSFDKTTFRLLRGESNLFYTLAKWENNKLHVELPENIDKQSPTMTLIYDENGQLLWAQRDVPWLMKMIQPDWLKSNGFHEIEADVNDTSLLLSGDHSIQQQLQEVREDDDDAEMTHSVAVNVYPATSRMPKLTIVVVDTIPVELKSSYMVWSWFIYVLSANLLLVIPLLWVAAWWSLRPIEALAKEVRELEEHNRELLNPATTRELTSLVRNLNRLLKSERERYDKYRTTLTDLTHSLKTPLXXLQXXLRSLRSEKMSVSDAEPVMLEQISRISQQIGYYLHRASMRGGTLLSRELHPVAPLLDNLTSALNKVYQRKGVNISLDISPEISFVGEQNDFVEVMGNVLDNACKYCLEFVEISARQTDEHLYIVVEDDGPGIPLSKREVIFDRGQRVDTLRPGQGVGLAVAREITEQYEGKIVAGESMLGGARMEVIFGRQHSAPKDE

Some of the results follow.

Variants of B1 are the subject of the assay. Description: enrichment ratio after two sorts for PhoP signalling (ratio (wild type AVST 3.29)); higher = more functional. The note with it: with PhoP (E. coli).
With RQER, the enrichment ratio is at most 0.25.

With KDND, the enrichment ratio is at most 0.25.

QDDV: the enrichment ratio is at most 0.25.

In the case of TSTI, the enrichment ratio turned out to be 22.

On to PVWW, for which the enrichment ratio was at most 0.25.

For EGNS, the enrichment ratio is at most 0.25.

Regarding IMSI, the enrichment ratio was at most 0.25.

On to YPMH, for which the enrichment ratio is at most 0.25.

For PNWQ, the enrichment ratio is at most 0.25.

Regarding HDFQ, the enrichment ratio was at most 0.25.

As to TCYE, the enrichment ratio was at most 0.25.

With KAWD, the enrichment ratio was at most 0.25.

Regarding DCED, the enrichment ratio was at most 0.25.

As to DVSM, the enrichment ratio was at most 0.25.

For the variant NAWI, the enrichment ratio is at most 0.25.

As to SIHL, the enrichment ratio is 2.25.

As for WVLS, the enrichment ratio is at most 0.25.

In the case of NGPF, the enrichment ratio was at most 0.25.

STYN: the enrichment ratio is at most 0.25.

DRIG: the enrichment ratio was at most 0.25.

In the case of GGPQ, the enrichment ratio is at most 0.25.

As for VWSY, the enrichment ratio was at most 0.25.

Consider DHLC, for which the enrichment ratio was at most 0.25.

As for IHDQ, the enrichment ratio is at most 0.25.

On to DMER, for which the enrichment ratio was at most 0.25.

In the case of KDVG, the enrichment ratio is at most 0.25.

Take EVDM: the enrichment ratio was at most 0.25.

Turning to TPYC, the enrichment ratio is at most 0.25.

On to ALNI, for which the enrichment ratio is at most 0.25.

For QEMA, the enrichment ratio was at most 0.25.

For SHNS, the enrichment ratio was at most 0.25.

For the variant RPHH, the enrichment ratio is 2.37.

WVRH: the enrichment ratio was at most 0.25.

On to LEFT, for which the enrichment ratio stood at 6.32.

As to WYYM, the enrichment ratio was at most 0.25.

For FEAK, the enrichment ratio is at most 0.25.

In the case of GPYY, the enrichment ratio was at most 0.25.

For the variant DPNH, the enrichment ratio is at most 0.25.

As to HWVY, the enrichment ratio was at most 0.25.

With FFAD, the enrichment ratio was at most 0.25.

On to NQMH, for which the enrichment ratio was at most 0.25.

For the variant LTGC, the enrichment ratio is at most 0.25.

Regarding HCYW, the enrichment ratio is at most 0.25.

In the case of VYRM, the enrichment ratio is at most 0.25.

With WKWY, the enrichment ratio is at most 0.25.

QRPV: the enrichment ratio is at most 0.25.

In the case of TSEH, the enrichment ratio was determined as 1.16.

Consider HYEC, for which the enrichment ratio was at most 0.25.

With IKTR, the enrichment ratio was at most 0.25.

For the variant LRRV, the enrichment ratio is at most 0.25.

With VPTS, the enrichment ratio was at most 0.25.

For the variant LYVY, the enrichment ratio was at most 0.25.

For the variant YYPV, the enrichment ratio is at most 0.25.

On to SRTE, for which the enrichment ratio was at most 0.25.

In the case of RMWY, the enrichment ratio was at most 0.25.

As to KVIV, the enrichment ratio is at most 0.25.

As for WKCR, the enrichment ratio is at most 0.25.

Take FWEV: the enrichment ratio was at most 0.25.

As to IEDY, the enrichment ratio is at most 0.25.

As for KDQC, the enrichment ratio is at most 0.25.

As for RAGS, the enrichment ratio was at most 0.25.

For the variant RTIH, the enrichment ratio was at most 0.25.

Turning to DHHW, the enrichment ratio was at most 0.25.

With DFKS, the enrichment ratio was at most 0.25.

On to PGWD, for which the enrichment ratio was at most 0.25.

In the case of AMIM, the enrichment ratio was 29.3.

On to TKEV, for which the enrichment ratio is at most 0.25.

Take HLLI: the enrichment ratio was at most 0.25.

Regarding FQDC, the enrichment ratio was at most 0.25.

As for DAMF, the enrichment ratio is at most 0.25.

For HNRR, the enrichment ratio was at most 0.25.

In the case of VLGA, the enrichment ratio is at most 0.25.

With DRAS, the enrichment ratio was at most 0.25.

Regarding YHSL, the enrichment ratio is at most 0.25.

As for WSIK, the enrichment ratio is at most 0.25.

With IFRM, the enrichment ratio was at most 0.25.

For the variant KYNL, the enrichment ratio is at most 0.25.

Consider NHEC, for which the enrichment ratio was at most 0.25.

For RTTR, the enrichment ratio is at most 0.25.

Regarding PHHQ, the enrichment ratio is at most 0.25.

Take MIMC: the enrichment ratio was at most 0.25.

On to KRTA, for which the enrichment ratio was at most 0.25.

For ERRM, the enrichment ratio was at most 0.25.

As for FYMI, the enrichment ratio was at most 0.25.

On to HFDA, for which the enrichment ratio is at most 0.25.

As to FEFL, the enrichment ratio was at most 0.25.

On to LKVF, for which the enrichment ratio was at most 0.25.

Consider AMWN, for which the enrichment ratio is at most 0.25.

Take VTWG: the enrichment ratio is at most 0.25.

DEPP: the enrichment ratio was at most 0.25.

With ITKS, the enrichment ratio is at most 0.25.

For the variant SSTY, the enrichment ratio turned out to be 11.3.

As to WLHT, the enrichment ratio is at most 0.25.

As for SEFT, the enrichment ratio stood at 8.95.

As for LGGE, the enrichment ratio is at most 0.25.

Consider HYRL, for which the enrichment ratio was at most 0.25.

Take LLFP: the enrichment ratio was at most 0.25.

As for FVMA, the enrichment ratio is at most 0.25.

AMAI: the enrichment ratio turned out to be 14.3.

WPHM: the enrichment ratio was at most 0.25.

Take IEYW: the enrichment ratio is at most 0.25.

Take RIQH: the enrichment ratio was at most 0.25.

With KHQA, the enrichment ratio was at most 0.25.

As for PASC, the enrichment ratio is at most 0.25.

With FYQA, the enrichment ratio is at most 0.25.

In the case of LDHM, the enrichment ratio was at most 0.25.

In the case of VHCW, the enrichment ratio is at most 0.25.

Consider EMIF, for which the enrichment ratio was at most 0.25.

Take RKWP: the enrichment ratio was at most 0.25.

On to LYMT, for which the enrichment ratio was at most 0.25.

SCYV: the enrichment ratio turned out to be 0.272.

Consider PAHL, for which the enrichment ratio is at most 0.25.

Consider IHKE, for which the enrichment ratio is at most 0.25.

Turning to RFDS, the enrichment ratio is at most 0.25.

On to RHRQ, for which the enrichment ratio is at most 0.25.

For the variant SQDE, the enrichment ratio is at most 0.25.

As for EACS, the enrichment ratio is at most 0.25.

With NARI, the enrichment ratio was at most 0.25.

Turning to PIVW, the enrichment ratio was at most 0.25.

On to QAYM, for which the enrichment ratio is at most 0.25.

Take KIVH: the enrichment ratio is at most 0.25.

As to RMCQ, the enrichment ratio was at most 0.25.

Regarding NPWI, the enrichment ratio was at most 0.25.

For the variant RFQI, the enrichment ratio is at most 0.25.

WPFV: the enrichment ratio was at most 0.25.

As for FNCP, the enrichment ratio was at most 0.25.

Consider GWVN, for which the enrichment ratio was at most 0.25.

In the case of AKRH, the enrichment ratio was at most 0.25.

Regarding AEDI, the enrichment ratio is at most 0.25.

For KQRF, the enrichment ratio is at most 0.25.

With DVIG, the enrichment ratio was at most 0.25.

For EQLG, the enrichment ratio is at most 0.25.

As to SEYP, the enrichment ratio was at most 0.25.

RNSC: the enrichment ratio is at most 0.25.

Consider YIRH, for which the enrichment ratio was at most 0.25.

Take VEWV: the enrichment ratio is at most 0.25.

As to FRSP, the enrichment ratio was at most 0.25.

WKMV: the enrichment ratio is at most 0.25.

With FIRV, the enrichment ratio was at most 0.25.

As to FTYA, the enrichment ratio was at most 0.25.

Consider DCLD, for which the enrichment ratio is at most 0.25.

As for QNIH, the enrichment ratio was at most 0.25.

EVRW: the enrichment ratio was at most 0.25.

On to SHCP, for which the enrichment ratio was at most 0.25.

Turning to VYWG, the enrichment ratio is at most 0.25.

For GSRK, the enrichment ratio came out at 0.319.

Consider LAVD, for which the enrichment ratio was at most 0.25.

KGTP: the enrichment ratio was at most 0.25.

Regarding FATS, the enrichment ratio is at most 0.25.

Turning to RKMF, the enrichment ratio was at most 0.25.

QYLL: the enrichment ratio is at most 0.25.

Consider MIST, for which the enrichment ratio is at most 0.25.

As to EACL, the enrichment ratio was at most 0.25.
